Structures are written as SMILES. Among all 150,000 compounds or so, about 540 (0.36%) showed an effect of 50% or more. The list shows a part of the results.

This assay relates to Plasmodium falciparum. Nature of the assay: Primary screen in NF54 nanoGlo assay, in single point, at 2uM, 72h; a lower Z score goes with more inhibition. It counts as functional, Erythrocyte. To be noted: timepoint 72 hour.
Usually % Inhibition stands for the change of the read-out against control, counted positive when it falls. As for `c1cc(CNCc2csc(C3CC3)n2)cc(N2CCCCCC2)n1`, the “% Inhibition” value is recorded as -4% and the Z score is on record as 0.8.

Turning to `O=S(=O)(Nc1nnc(-c2ccsc2)s1)c1cccnc1`, the “% Inhibition” value is recorded as -4% and the Z score amounted to 0.56.

As for `CCc1nnc(NC(=O)COC)s1`, the “% Inhibition” value was 5% and the Z score is on record as -0.76.

Take `C[C@]1(c2cc(F)cc(F)c2)NC(=O)N(Cc2ccccn2)C1=O`: the “% Inhibition” value is on record as -5% and the Z score came out at 0.59.

In the case of `CC1CCCC(C#N)(NC(=O)c2ccc3c(c2)OCCO3)C1` (stereo unspecified), the “% Inhibition” value is -7% and the Z score worked out at 0.76.

For `Cc1ncoc1C(=O)NC(Cc1ccncc1)[C@H]1C[C@H](O)C1` (stereo partly specified), the “% Inhibition” value is -12% and the Z score was 1.27.

Take `C[C@]1(C(=O)O)CCN(C(=O)c2cccc3[nH]ccc23)C1`: the “% Inhibition” value is -20% and the Z score came to 1.87.

On to `Cc1cnc(N[C@@H](C)C(=O)NC(C)(C)C)nc1`, for which the “% Inhibition” value was -11% and the Z score was 1.73.

As to `CCN1C[C@@H](c2ccccc2)CC2(CCN(Cc3coc(C)n3)CC2)C1`, the “% Inhibition” value is -12% and the Z score is 1.01.

`Cc1c[nH]c(CN2CCC(CNC(=O)[C@H]3CCOC3)CC2)n1`: the “% Inhibition” value is 0% and the Z score was -0.05.

`O=C(NC1CCCCCC1)C1CCN(c2ccc3nncn3n2)CC1`: the “% Inhibition” value is given as -17% and the Z score is reported as 2.09.

In the case of `Cn1nc(NCc2ncc(Cl)n2C)cc1C(F)(F)F`, the “% Inhibition” value is listed as -2% and the Z score is given as 0.43.

With `COc1ccccc1-c1cc(C(=O)NCCc2ccccc2)c2c(-c3ccccc3)[nH]nc2n1`, the “% Inhibition” value is -19% and the Z score was 2.54.

For `Cc1nc2oc(-c3ccccc3)nc2cc1NC(=O)c1cccs1`, the “% Inhibition” value is recorded as -20% and the Z score was found to be 2.55.

Take `Cn1cc(C(F)(F)F)nc1[C@H]1CCCN(C(=O)c2cncnc2)C1`: the “% Inhibition” value is -5% and the Z score is 0.61.

As to `O=C(O)C(c1ccccc1Br)N1CCCC(n2cncn2)C1` (stereo unspecified), the “% Inhibition” value was found to be 1% and the Z score is recorded as -0.14.

In the case of `CCS(=O)(=O)NC[C@H](C)N(C)Cc1cc(C)cc(C)n1`, the “% Inhibition” value is given as -7% and the Z score stood at 1.41.

On to `CC(C)c1cc(-c2nc(C3(S(C)(=O)=O)CCCC3)no2)n[nH]1`, for which the “% Inhibition” value is -10% and the Z score amounted to 1.38.

As to `O=C(CNC(=O)c1cnccn1)NCc1c(F)cccc1F`, the “% Inhibition” value is recorded as -3% and the Z score was 0.42.

As to `COc1ccc(CCNC(=O)c2cc3ccc4ccc(C)nc4c3[nH]2)cc1OC`, the “% Inhibition” value came to 2% and the Z score is reported as -0.31.

As to `CC(C)c1cc(-c2nc(CC3CC3)nn2C(C)C)n(C)n1`, the “% Inhibition” value is listed as -11% and the Z score was determined as 1.85.

For `CC(=O)N[C@H]1CCN(Cc2cc3ccccc3s2)C1`, the “% Inhibition” value is given as 5% and the Z score is given as -0.75.

For the compound `CN1CC2(CCN(Cc3cc(C#N)n(C)c3)CC2)C[C@@H](c2ccccc2)C1=O`, the “% Inhibition” value is -3% and the Z score is 0.64.

`CCc1ccccc1NC(=O)Cn1ncn2c(C)c(C(=O)NCc3ccc(F)cc3)c(C)c2c1=O`: the “% Inhibition” value is listed as -6% and the Z score was 0.9.

In the case of `CCCN1CCN(c2nc(-c3ccc(OC)cc3)nc3c2CCOCC3)CC1`, the “% Inhibition” value is listed as -15% and the Z score was found to be 1.46.

Regarding `COc1ccc(-c2c(C(=O)Nc3ccc(Cl)cc3C)nn3c(C)cc(=O)[nH]c23)cc1`, the “% Inhibition” value is 1% and the Z score is on record as -0.09.

Consider `CC(C)[C@H](C)NC(=O)c1ccc(S(=O)(=O)N(C)C)cc1`, for which the “% Inhibition” value is 31% and the Z score is -3.5.

On to `CCc1nc(C)c(C(=O)N2CCC[C@H](N(C)C(=O)c3ccc4nonc4c3)C2)o1`, for which the “% Inhibition” value is on record as -4% and the Z score stood at 0.55.

Take `CCc1noc(C)c1C(=O)N(CC)c1ncccc1C`: the “% Inhibition” value is on record as -13% and the Z score is 1.9.

Regarding `C=C(C)Cn1c(-c2nccn2C)nnc1N1CCC(F)(F)C1`, the “% Inhibition” value is listed as -3% and the Z score is recorded as 0.4.

With `Cc1c(NC(=O)[C@@H](F)C(F)(F)F)c(=O)n(C2CCCCC2)n1C`, the “% Inhibition” value was -12% and the Z score came out at 2.22.

For the compound `Cc1nc(NCc2ccccc2)sc1C(=O)Nc1ccccc1`, the “% Inhibition” value was -8% and the Z score is given as 1.08.

Take `CCN(C)C[C@H]1CCN(S(=O)(=O)c2c[nH]c3cccc(F)c23)C1`: the “% Inhibition” value is 0% and the Z score is given as -0.04.

Consider `Cc1ccsc1CCC(=O)N1CCC(Oc2nncs2)CC1`, for which the “% Inhibition” value came to 26% and the Z score is -3.26.

In the case of `COc1ccc(C(=O)N2CCC3(CC2)C[C@@H](CNS(C)(=O)=O)CCO3)cc1F`, the “% Inhibition” value came to 0% and the Z score is listed as -0.01.

With `CCCN(CC(=O)N1CCN(c2ccc(-c3cccc(OC)c3)nn2)CC1)C(=O)c1cccc(F)c1`, the “% Inhibition” value is reported as -6% and the Z score was 0.62.

Consider `CC(=O)C1CN(C(=O)c2cc(C)cc(C)c2)C1`, for which the “% Inhibition” value was -4% and the Z score is given as 0.64.

Consider `O=C(N[C@H](c1ccccc1)c1cc2ccccc2o1)c1cc[n+]([O-])cc1`, for which the “% Inhibition” value is 4% and the Z score is -0.36.

Consider `O=C(NS(=O)(=O)C1CCOCC1)c1csc(-c2ccco2)n1`, for which the “% Inhibition” value stood at 40% and the Z score is given as -5.75.

For `CC1(C)C[C@@H]1C(=O)N(Cc1ncc[nH]1)c1cncc(Br)c1`, the “% Inhibition” value is reported as -4% and the Z score is 0.89.

In the case of `CC[C@H](C)N/C(=N\C(=O)c1ccccc1C)OCC(C)C`, the “% Inhibition” value was -13% and the Z score is reported as 2.17.

As to `Cc1nn(CCCNc2ncnc3[nH]ccc23)c(C)c1C`, the “% Inhibition” value was -2% and the Z score was found to be 0.27.

With `CN1CCN(n2ccc3c(cnc4c(-c5ccccc5)cnn43)c2=O)CC1`, the “% Inhibition” value is recorded as -9% and the Z score is given as 1.16.

These data come from ChEMBL document CHEMBL4888484, “Replenishing the malaria drug discovery pipeline: Screening and hit evaluation of the MMV Hit Generation Library 1 (HGL1) against asexual blood stage Plasmodium falciparum ,using a nano luciferase reporter read-out” (2022).
